T1: human BMP-9 (human, UniProt Q9UK05 320-429)
T1 construct: also called hBMP-9
T1 sequence (looked up): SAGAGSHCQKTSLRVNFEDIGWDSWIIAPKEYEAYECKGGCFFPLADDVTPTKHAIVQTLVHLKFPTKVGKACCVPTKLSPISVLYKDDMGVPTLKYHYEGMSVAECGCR

T2: human BMP-10 (human, UniProt O95393 317-424)
T2 construct: also called hBMP-10
T2 sequence (looked up): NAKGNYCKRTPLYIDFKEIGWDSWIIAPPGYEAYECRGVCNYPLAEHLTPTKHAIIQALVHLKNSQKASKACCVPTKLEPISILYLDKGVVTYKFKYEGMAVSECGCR

T3: human TGF-β2 (human, UniProt P61812 303-414)
T3 construct: also called hTGF-β2
T3 sequence (looked up): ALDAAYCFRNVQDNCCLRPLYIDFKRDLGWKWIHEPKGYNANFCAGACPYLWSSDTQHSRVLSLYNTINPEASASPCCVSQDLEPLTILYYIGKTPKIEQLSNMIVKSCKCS

T4: hBMP-2/7 (human, UniProt P12643 283-396; P18075 293-431)
T4 construct: read as the BMP-2/BMP-7 heterodimer
T4 sequence (looked up) 1: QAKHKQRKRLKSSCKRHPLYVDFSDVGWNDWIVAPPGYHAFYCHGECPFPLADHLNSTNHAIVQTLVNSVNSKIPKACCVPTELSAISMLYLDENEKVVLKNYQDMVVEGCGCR
T4 sequence (looked up) 2: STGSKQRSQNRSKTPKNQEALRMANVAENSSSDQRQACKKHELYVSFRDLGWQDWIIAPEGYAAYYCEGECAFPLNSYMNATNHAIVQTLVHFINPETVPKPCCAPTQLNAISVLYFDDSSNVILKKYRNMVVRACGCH

T5: human TGF-β3 (human, UniProt P10600 301-412)
T5 construct: also called hTGF-β3
T5 sequence (looked up): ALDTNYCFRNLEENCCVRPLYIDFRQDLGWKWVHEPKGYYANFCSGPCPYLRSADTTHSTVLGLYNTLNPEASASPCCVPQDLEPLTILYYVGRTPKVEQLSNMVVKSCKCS

T6: human BMP-7 (human, UniProt P18075 293-431)
T6 construct: also called hBMP-7
T6 sequence (looked up): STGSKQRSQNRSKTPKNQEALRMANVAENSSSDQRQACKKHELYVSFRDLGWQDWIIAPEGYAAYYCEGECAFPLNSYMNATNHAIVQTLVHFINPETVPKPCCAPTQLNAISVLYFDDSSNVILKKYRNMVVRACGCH

T7: human activin A (human, UniProt P08476 311-426)
T7 construct: also called hActivin A
T7 sequence (looked up): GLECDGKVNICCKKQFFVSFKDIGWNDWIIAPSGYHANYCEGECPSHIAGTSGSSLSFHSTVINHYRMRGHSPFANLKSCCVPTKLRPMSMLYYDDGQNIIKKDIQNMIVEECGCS

T8: human BMP-2 (human, UniProt P12643 283-396)
T8 construct: also called hBMP-2
T8 sequence (looked up): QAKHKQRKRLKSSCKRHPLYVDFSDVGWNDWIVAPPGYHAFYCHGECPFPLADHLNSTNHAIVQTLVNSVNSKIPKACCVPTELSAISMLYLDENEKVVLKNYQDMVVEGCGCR

T9: VEGF (human, UniProt P15692-4 27-191, limits assumed)
T9 construct: also called vascular endothelial growth factor
T9 sequence (looked up): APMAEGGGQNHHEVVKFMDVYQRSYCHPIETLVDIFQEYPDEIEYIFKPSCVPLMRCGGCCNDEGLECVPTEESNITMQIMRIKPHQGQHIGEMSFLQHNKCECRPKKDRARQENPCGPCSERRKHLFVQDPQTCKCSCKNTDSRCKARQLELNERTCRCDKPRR


Legend:
human BMP-9 [1] = target: T1, human BMP-9; test: SPR kinetics, HEK293-cell-derived protein
human BMP-10 [2] = target: T2, human BMP-10; test: SPR kinetics, HEK293-cell-derived protein
human BMP-10 [3] = target: T2, human BMP-10; test: summary table of CHO-cell-derived fusion proteins; method not given
human BMP-9 [4] = target: T1, human BMP-9; test: as above
human BMP-10 [5] = target: T2, human BMP-10; test: cell-based or functional assay
human BMP-9 [6] = target: T1, human BMP-9; test: cell-based or functional assay
human BMP-9 [7] = target: T1, human BMP-9; test: SPR kinetics, captured CHO-cell-derived protein
Method: BMP-9 binding to captured CHO-cell-derived proteins was assessed at ligand concentrations of 0.0195-0.625 nM in two-fold increments. RU, response units.

human BMP-10 [8] = target: T2, human BMP-10; test: SPR kinetics, CHO-cell-derived protein
human BMP-10 [9] = target: T2, human BMP-10; test: cell-based or functional assay; remark: listed apart in the source
human BMP-9 [10] = target: T1, human BMP-9; test: cell-based or functional assay; remark: listed apart in the source
human BMP-10 [11] = target: T2, human BMP-10; test: SPR, captured hENG-hFc, ligand at 100 nM; ++++ = KD < 1 nM
human BMP-9 [12] = target: T1, human BMP-9; test: as above
human TGF-β2 = target: T3, human TGF-β2; test: SPR ligand panel
hBMP-2/7 = target: T4, hBMP-2/7; test: SPR ligand panel
human TGF-β3 = target: T5, human TGF-β3; test: SPR ligand panel
human TGF-β1 = target: T10, human TGF-β1 (human, UniProt P01137 fragment); test: SPR ligand panel
Chain of human TGF-β1 (P01137 279-390 limits assumed): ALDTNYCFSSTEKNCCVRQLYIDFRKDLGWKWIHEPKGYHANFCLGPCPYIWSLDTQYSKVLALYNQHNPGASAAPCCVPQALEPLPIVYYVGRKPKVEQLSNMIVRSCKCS
T10 construct: also called hTGF-β1

human BMP-7 = target: T6, human BMP-7; test: SPR ligand panel
human activin A = target: T7, human activin A; test: SPR ligand panel
human BMP-2 = target: T8, human BMP-2; test: SPR ligand panel
VEGF = target: T9, VEGF; test: SPR

Row | Binder | Kd (human BMP-9 [1]) [nM] | koff (human BMP-9 [1]) [s⁻¹] | Kd (human BMP-10 [2]) [nM] | koff (human BMP-10 [2]) [s⁻¹] | Kd (human BMP-10 [3]) [nM] | koff (human BMP-10 [3]) [s⁻¹] | koff (human BMP-9 [4]) [s⁻¹] | IC50 (nM), BRE-luciferase reporter-gene assay in A204 cells (human BMP-10 [5]) [nM] | IC50 (nM), BRE-luciferase reporter-gene assay in A204 cells (human BMP-9 [6]) [nM] | Kd (human BMP-9 [7]) [nM] | koff (human BMP-9 [7]) [s⁻¹] | Kd (human BMP-10 [8]) [nM] | koff (human BMP-10 [8]) [s⁻¹] | Potency (cell-based IC50) (human BMP-10 [9]) [nM] | Potency (cell-based IC50) (human BMP-9 [10]) [nM] | binding result (human TGF-β2) | binding result (hBMP-2/7) | binding result (human TGF-β3) | binding result (human TGF-β1) | binding result (human BMP-7) | other results
1 | hENG(26-586)-hFc, CHO-cell-derived, with N-terminally truncated Fc domain (Fc fusion, also called full-length construct) ETVHCDLQPVGPERDEVTYTTSQVSKGCVAQAPNAILEVHVLFLEFPTGPSQLELTLQASKQNGTWPREVLLVLSVNSSVFLHLQALGIPLHLAYNSSLVTFQEPPGVNTTELPSFPKTQILEWAAERGPITSAAELNDPQSILLRLGQAQGSLSFCMLEASQDMGRTLEWRPRTPALVRGCHLEGVAGHKEAHILRVLPGHSAGPRTVTVKVELSCAPGDLDAVLILQGPPYVSWLIDANHNMQIWTTGEYSFKIFPEKNIRGFKLPDTPQGLLGEARMLNASIVASFVELPLASIVSLHASSCGGRLQTSPAPIQTTPPKDTCSPELLMSLIQTKCADDAMTLVLKKELVAHLKCTITGLTFWDPSCEAEDRGDKFVLRSAYSSCGMQVSASMISNEAVVNILSSSSPQRKKVHCLNMDSLSFQLGLYLSPHFLQASNTIEPGQQSFVQVRVSPSVSEFLLQLDSCHLDLGPEGGTVELIQGRAAKGNCVSLLSPSPEGDPRFSFLLHFYTVPIPKTGTLSCTVALRPKTGSQDQEVHRTVFMRLNIISPDLSGCTSKGTG[left out - human IgG1 Fc and a few adjoining residues] |  |  |  |  | 0.49 | 0.011 | 0.0025 | 7.9 | 0.26 | 0.033 | 0.0025 | 0.49 | 0.011 | 7.9 | 0.26 |  |  |  |  |  | 
2 | hENG(26-359)-hFc, CHO-cell-derived, with N-terminally truncated Fc domain (Fc fusion) ETVHCDLQPVGPERDEVTYTTSQVSKGCVAQAPNAILEVHVLFLEFPTGPSQLELTLQASKQNGTWPREVLLVLSVNSSVFLHLQALGIPLHLAYNSSLVTFQEPPGVNTTELPSFPKTQILEWAAERGPITSAAELNDPQSILLRLGQAQGSLSFCMLEASQDMGRTLEWRPRTPALVRGCHLEGVAGHKEAHILRVLPGHSAGPRTVTVKVELSCAPGDLDAVLILQGPPYVSWLIDANHNMQIWTTGEYSFKIFPEKNIRGFKLPDTPQGLLGEARMLNASIVASFVELPLASIVSLHASSCGGRLQTSPAPIQTTPPKDTCSPELLMSLITG[left out - human IgG1 Fc and a few adjoining residues] |  |  |  |  | 0.086 | 0.0023 | 0.00035 | 3.5 | 0.16 | 0.0042 | 0.00035 | 0.086 | 0.0023 | 3.5 | 0.16 |  |  |  |  |  | Kd (human BMP-9 [4]): 4.2 pM
3 | hENG(26-437)-hFc (Fc fusion, also called ENG(26-437)-Fc) GAETVHCDLQPVGPERDEVTYTTSQVSKGCVAQAPNAILEVHVLFLEFPTGPSQLELTLQASKQNGTWPREVLLVLSVNSSVFLHLQALGIPLHLAYNSSLVTFQEPPGVNTTELPSFPKTQILEWAAERGPITSAAELNDPQSILLRLGQAQGSLSFCMLEASQDMGRTLEWRPRTPALVRGCHLEGVAGHKEAHILRVLPGHSAGPRTVTVKVELSCAPGDLDAVLILQGPPYVSWLIDANHNMQIWTTGEYSFKIFPEKNIRGFKLPDTPQGLLGEARMLNASIVASFVELPLASIVSLHASSCGGRLQTSPAPIQTTPPKDTCSPELLMSLIQTKCADDAMTLVLKKELVAHLKCTITGLTFWDPSCEAEDRGDKFVLRSAYSSCGMQVSASMISNEAVVNILSSSSPQRTGGG[left out - human IgG1 Fc] | 0.019 | 0.0014 | 0.13 | 0.0028 |  |  |  |  |  |  |  |  |  |  |  | no binding (tested: 100 nM) | no binding (tested: 100 nM) | no binding (tested: 50 nM) | no binding (tested: 100 nM) | no binding (tested: 100 nM) | binding result (human activin A): no binding (tested: 100 nM); binding result (human BMP-2): no binding (tested: 100 nM)

More lines, main results first:

Row | Kd (human BMP-9 [1]) [nM] | koff (human BMP-9 [1]) [s⁻¹] | Kd (human BMP-10 [2]) [nM] | koff (human BMP-10 [2]) [s⁻¹] | Kd (human BMP-10 [3]) [nM] | koff (human BMP-10 [3]) [s⁻¹] | koff (human BMP-9 [4]) [s⁻¹] | IC50 (nM), BRE-luciferase reporter-gene assay in A204 cells (human BMP-10 [5]) [nM] | IC50 (nM), BRE-luciferase reporter-gene assay in A204 cells (human BMP-9 [6]) [nM] | Kd (human BMP-9 [7]) [nM] | koff (human BMP-9 [7]) [s⁻¹] | Kd (human BMP-10 [8]) [nM] | koff (human BMP-10 [8]) [s⁻¹] | Potency (cell-based IC50) (human BMP-10 [9]) [nM] | Potency (cell-based IC50) (human BMP-9 [10]) [nM] | binding result (human TGF-β2) | binding result (hBMP-2/7) | binding result (human TGF-β3) | binding result (human TGF-β1) | binding result (human BMP-7) | Binder | other results
4 | 0.0067 | 0.00034 | 0.095 | 0.0019 |  |  |  |  |  |  |  |  |  |  |  |  |  |  |  |  | hENG(26-378)-hFc (truncated Fc) (Fc fusion, also called Human ENG(26-378)-hFc) ETVHCDLQPVGPERDEVTYTTSQVSKGCVAQAPNAILEVHVLFLEFPTGPSQLELTLQASKQNGTWPREVLLVLSVNSSVFLHLQALGIPLHLAYNSSLVTFQEPPGVNTTELPSFPKTQILEWAAERGPITSAAELNDPQSILLRLGQAQGSLSFCMLEASQDMGRTLEWRPRTPALVRGCHLEGVAGHKEAHILRVLPGHSAGPRTVTVKVELSCAPGDLDAVLILQGPPYVSWLIDANHNMQIWTTGEYSFKIFPEKNIRGFKLPDTPQGLLGEARMLNASIVASFVELPLASIVSLHASSCGGRLQTSPAPIQTTPPKDTCSPELLMSLIQTKCADDAMTLVLKKELVATG[left out - human IgG1 Fc and a few adjoining residues] | 
5 |  |  |  |  |  |  |  |  |  |  |  |  |  |  |  | no binding (tested: 100 nM) | no binding (tested: 100 nM) | no binding (tested: 50 nM) | no binding (tested: 100 nM) | no binding (tested: 100 nM) | hENG(26-359)-hFc (Fc fusion) ETVHCDLQPVGPERDEVTYTTSQVSKGCVAQAPNAILEVHVLFLEFPTGPSQLELTLQASKQNGTWPREVLLVLSVNSSVFLHLQALGIPLHLAYNSSLVTFQEPPGVNTTELPSFPKTQILEWAAERGPITSAAELNDPQSILLRLGQAQGSLSFCMLEASQDMGRTLEWRPRTPALVRGCHLEGVAGHKEAHILRVLPGHSAGPRTVTVKVELSCAPGDLDAVLILQGPPYVSWLIDANHNMQIWTTGEYSFKIFPEKNIRGFKLPDTPQGLLGEARMLNASIVASFVELPLASIVSLHASSCGGRLQTSPAPIQTTPPKDTCSPELLMSLITGGG[left out - human IgG1 Fc] | binding result (human BMP-10 [11]): binds; binding result (human BMP-9 [12]): binds; binding result (human activin A): no binding (tested: 100 nM); binding result (human BMP-2): no binding (tested: 100 nM); binding result (VEGF): no binding

— patent US20200164029A1 (ACCELERON PHARMA, published 2020)
